Assay results from PubChem BioAssay AID624417 (National Center for Advancing Translational Sciences (NCATS), 2012).
Values joined by “and” are separate entries in the source; they are usually repeats but may differ in a detail not shown here. Equal entries are not always repeated. The campaign covered roughly 410,000 compounds. About 6,400 (1.6%) were called active. The shares of active, inactive and inconclusive entries below differ from those in the screen. Calls follow the shape of the dose curve; as a rule, active = well fitted inhibition curve with a large enough effect; inconclusive = small, poorly fitted or top-dose-only effect; inactive = no such curve, though single readings can be large or run the other way. Where the call is inconclusive, the potency comes from a doubtful curve fit.

The molecules below were run against Glucagon-like peptide 1 receptor (Homo sapiens) (UniProt P43220) (assay: qHTS of GLP-1 Receptor Inverse Agonists (Inhibition Mode)). Conditions: HEK293 GLP-1R CRE-luciferase, luminescence, 24 h, GLP-1R form is constitutively active; series mostly up to 38.3 µM.
Chain of UniProt P43220 (P43220 whole entry, looked up): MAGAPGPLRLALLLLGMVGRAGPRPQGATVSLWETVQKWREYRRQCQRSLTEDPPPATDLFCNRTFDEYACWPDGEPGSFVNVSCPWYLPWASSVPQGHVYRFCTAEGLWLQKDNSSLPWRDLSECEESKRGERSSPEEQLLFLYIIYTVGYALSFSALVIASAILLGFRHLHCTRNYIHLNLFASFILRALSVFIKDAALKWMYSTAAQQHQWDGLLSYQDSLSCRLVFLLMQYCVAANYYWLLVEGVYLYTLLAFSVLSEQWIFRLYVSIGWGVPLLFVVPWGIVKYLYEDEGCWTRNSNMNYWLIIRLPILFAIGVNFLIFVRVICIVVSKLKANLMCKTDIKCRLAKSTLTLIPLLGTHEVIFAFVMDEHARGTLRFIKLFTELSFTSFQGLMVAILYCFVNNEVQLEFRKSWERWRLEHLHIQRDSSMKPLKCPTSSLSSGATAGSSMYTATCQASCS
Method in brief: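 Using stably transfected HEK293 (constitutively active GLP-1R, cAMP-luciferase reporter), compounds were incubated 24 hr and luciferase measured by luminescence.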
Also: nearly all actives have a fitted effect of over 55% in size.
Potency is read from the fitted curve at half-maximal effect; tags tell the direction and shape of the fitted curve.

Row | Compound | Potency
1 | COc1cccc(N2C(=O)C(CC(=O)Nc3ccc(F)cc3)N(C3CCCCC3)C2=O)c1 (stereo not given) | inconclusive: 12.6 µM [inhibitor, partial curve, poor fit]
2 | Cc1ccc([C@H]2C[C@@H](O)[C@H](n3cc(C4CC4)nn3)CN2Cc2cccs2)cc1 | inconclusive: 1.78 µM [inhibitor, partial curve, poor fit]
3 | CC1CCN(CC(=O)Nc2ccccc2C(=O)NC2CC2)CC1 | inactive
4 | COc1ccccc1N(C)S(=O)(=O)c1ccc(C(=O)Nc2ccc3nc(C)sc3c2)cc1 | inconclusive: 1.12 µM [inhibitor, full curve, poor fit]
5 | O=C1C=C(c2ccc3[nH]ccc3c2)C[C@@H](c2ccc(Cl)cc2)C1 | inconclusive: 25.1 µM [inhibitor, single point]
6 | O=C(Nc1cccc(C(F)(F)F)c1)C(Sc1n[nH]c(=O)[nH]c1=O)c1ccccc1 (stereo not given) | inconclusive: 14.1 µM [inhibitor, partial curve, poor fit]
7 | CCCn1cc(CN2CCC(Cc3cccc(F)c3)(C(=O)OCC)CC2)c(C)n1 | inconclusive: 8.91 µM [inhibitor, partial curve, poor fit]
8 | Cc1ccc2oc(=O)c3cc(C(=O)NCCCN4C(C)CCCC4C)sc3c2c1 (stereo not given) | inconclusive: 12.6 µM [inhibitor, partial curve, poor fit]
9 | C(=C\c1ccccc1)/CSc1nnc(-c2ccccn2)n1Cc1ccco1 | active: 3.98 µM
10 | Nc1nc(-c2ccccc2)cc(N2CCCCC2)n1 | inconclusive: 28.2 µM [inhibitor, single point]
11 | CN(CC1CCCN(CCc2ccc(Cl)cc2)C1)C(=O)c1ccco1 (stereo not given) | inconclusive: 28.2 µM [inhibitor, single point]
12 | Cc1ccccc1Oc1nnc(-c2cccs2)c2ccccc12 | inconclusive: 10 µM [inhibitor, partial curve, poor fit]
13 | CCCCCCCCCCCCCCCC[n+]1cccc(C(=O)N(CC)CC)c1 | inconclusive: 12.6 µM [inhibitor, partial curve, poor fit] and inconclusive: 3.55 µM [inhibitor, partial curve, poor fit]
14 | O=C(CS(=O)(=O)Cc1ccccc1)NCCc1ccc(F)cc1 | inconclusive: 28.2 µM [inhibitor, single point]
15 | Cc1ccccc1NCCC(=O)Nc1ccc(F)cc1 | inconclusive: 31.6 µM [inhibitor, single point]
16 | O=C(Cc1ccc(Cl)cc1)Nc1cccc(S(=O)(=O)N2CCCCC2)c1 | inconclusive: 28.2 µM [inhibitor, partial curve, poor fit]
17 | COc1ccc(-c2csc(NC(=O)CS(=O)(=O)c3ccccc3)n2)cc1OC | inactive
18 | COc1ccc(CN(C)C(=O)C23CC4CC(CC(Cl)(C4)C2)C3)c(OC)c1OC | inconclusive: 11.2 µM [inhibitor, partial curve]
19 | O=C(CSc1nc2ccccc2n1S(=O)(=O)c1ccccc1)N1CCCCC1 | inactive
20 | Cc1ccc(CNC(=O)c2cc3c(=O)n(Cc4ccco4)ccc3nc2C)cc1 | inconclusive: 1.41 µM [inhibitor, full curve, poor fit]

Row | Compound | Potency
21 | COc1ccc(NC(=O)CC2C(=O)N(c3ccc(OC)cc3)C(=O)N2CCC2=CCCCC2)cc1 (stereo not given) | inactive
22 | Cc1ccc(C(=O)N2C(=S)C(c3ccc(F)cc3)=NC23CCN(C)CC3)cc1 | inconclusive: 11.2 µM [inhibitor, partial curve, poor fit]
23 | Cc1ccc([N+](=O)[O-])cc1NC(=O)C(C)N1CCCCC1 (stereo not given) | inactive
24 | OC(COCc1cccs1)CN1CCN(c2cccc(C(F)(F)F)c2)CC1 (stereo not given) | inconclusive: 15.8 µM [inhibitor, partial curve, poor fit]
25 | C=CCn1c(C2CCCCC2)n[nH]c1=S | inactive
26 | S=C(Nc1ccc(Cl)cc1)N(CCCN1CCOCC1)Cc1ccco1 | inconclusive: 11.2 µM [inhibitor, single point]
27 | S=C(N/N=C/c1cccs1)NC1CC2CCC1C2 (stereo not given) | inconclusive: 12.6 µM [inhibitor, partial curve, poor fit]
28 | Cc1cc(Cl)c2oc(C(=O)N3CCOCC3)c(C)c2c1 | inactive
29 | COc1ccc(Cn2cc3c(-c4ccc(F)cc4)nnc-3c3cc(OC)c(OC)cc32)cc1 | inconclusive: 11.2 µM [inhibitor, single point]
30 | CCCOC(=O)c1cccc(NC(=O)C(C)(C)C)c1 | inconclusive: 28.2 µM [inhibitor, single point]
31 | C=CCOc1cccc(C(=O)/C=C2/C(=O)Nc3ccccc32)c1 | inconclusive: 8.91 µM [inhibitor, partial curve, poor fit]
32 | O=S(=O)(NCCC1=CCCCC1)c1ccc(Br)cc1 | inconclusive: 22.4 µM [inhibitor, partial curve, poor fit]
33 | CC1=C(C(=O)OCc2ccccc2)C(c2ccc(C)cc2)NC(=O)N1 (stereo not given) | inactive
34 | CC(C)CC(=O)NC(=S)Nc1ccc(N2CCOCC2)c(Cl)c1 | inconclusive: 12.6 µM [inhibitor, partial curve, poor fit]
35 | CC(C)(C)OC(=O)NCCCCCc1nnc(SCc2ccccc2F)o1 | inconclusive: 10 µM [inhibitor, partial curve, poor fit]
36 | CCOC(=O)Cc1c(Sc2ccccc2)c2cc(C)ccc2n1C | inconclusive: 12.6 µM [inhibitor, partial curve, poor fit]
37 | CCOc1ccccc1CN1CCCC(CNS(=O)(=O)c2ccc(OC)cc2)C1 (stereo not given) | inconclusive: 10 µM [inhibitor, partial curve, poor fit]
38 | CCN(c1ccccc1)S(=O)(=O)c1ccc(OC)c(NC(=O)CNC)c1 | inconclusive: 28.2 µM [inhibitor, partial curve, poor fit]
39 | C/C(CC(=O)Nc1ccc(N(C)C)cc1)=N\NC(=O)c1ccc(F)cc1 | inactive
40 | Cc1ccc(OCCn2cnc(Cl)c2Cl)cc1 | inconclusive: 12.6 µM [inhibitor, single point]
